# Whole data set: some 33,000 sequences, median “E-score (-0.5 to 0.5)” near -0.016, cut for the highest 2% near 0.31. The list shows a part of the results.
# Target: Cst6 (UniProt P40535)
# Assay: PBM E-score (8-mer binding enrichment) (E-score (-0.5 to 0.5)); higher = stronger / more preferred TF binding; most listed sequences are background and not binding sites
# Conditions: protein concentration: 200 nM; construct: GST-DNA-binding domain
# Protocol: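 Universal 'all 10-mer' protein binding microarrays (Agilent AMADID 015681) probed with GST-tagged S. cerevisiae TFs (full-length or DBD) made by in vitro transcription/translation (PURExpress), about 100-200 nM. Bound TF was detected with fluorescent anti-GST. Each ungapped 8-mer (which stands for itself and its reverse complement) is scored by the PBM enrichment score (E-score), a modified Wilcoxon-Mann-Whitney statistic from -0.5 to +0.5, computed with the Universal PBM Analysis Suite. Scale: above 0.35 generally sequence-specific binding.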
row,Sequence,PBM E-score
1,CCACAATA,0.00807
2,CTAATTGA,0.0398
3,GCAATCGC,-0.0602
4,ATTGTCTA,0.218
5,ATCTGATA,-0.107
6,GAGGCATA,0.14
7,CATTTCAA,0.222
8,GCTGGAAA,-0.0103
9,TGCCTGAA,-0.0922
10,AATCTCCG,-0.00291
11,AGGAATAG,0.0371
12,CTCGGCCC,-0.362
13,ACTCACAG,0.0658
14,CTCCGATC,-0.293
15,ATAAACCA,0.0829
16,ATCGCCTC,0.148
17,ACTGCCGG,-0.192
18,AAAGTATC,0.155
19,GGGATGAA,-0.25
20,AAAACTTC,0.151
21,AGTGCTTC,-0.195
22,GAAGGTGA,0.0622

row,Sequence,PBM E-score
1,ACTACTGA,-0.098
2,AGCATTAC,0.079
3,AGGGCACA,0.151
4,GATCCTCA,0.00029
5,AGCATGAT,0.0554
6,GGGATCCC,-0.219
7,ATGCCAGC,-0.103
8,CAGTCTCA,0.0411
9,AGTAACAT,0.228
10,ATGGACGC,0.0988
11,AGACGTAG,-0.133
12,AAGGCCGA,-0.142
13,ACCTACGC,-0.0589
14,AGCTGACC,-0.126
15,CGCGAACG,-0.125
16,GAATAGGC,0.0172
17,CGGCCTCC,-0.151
18,AAACGATC,0.0158
19,GGTAGTAC,-0.17
20,CTCCCGCA,-0.0754
21,GACATCAA,0.327
22,ACCCACCC,0.0727

row,Sequence,PBM E-score
1,AGAAAGCA,0.259
2,TGAAAACA,0.241
3,AACACAAG,0.00354
4,ACTTGTGA,0.143
5,AAGGTATG,-0.0356
6,ATTCGAGA,-0.0189
7,GGAAGGAA,-0.101
8,AGTCCCTC,-0.335
9,ACTCCGTC,0.0602
10,GCCCGAAC,-0.176
11,AGCTAGCC,-0.115
12,CCTCAACC,-0.0748
13,CTCTCGGC,-0.196
14,AAGTGGGA,0.0966
15,ACCGTTGA,0.0573
16,CTGACCCC,-0.359
17,ACACTTAT,0.119
18,ACCGTACT,0.0481
19,AATCCTCT,-0.189
20,CACTTCAG,-0.131
21,CAGGCGGC,-0.0166
22,CATATCGA,0.038

row,Sequence,PBM E-score
1,GGTTGGGA,-0.148
2,CTCAACAC,0.186
3,CGGCTTGC,0.184
4,AACACAGC,0.124
5,ATCTATAC,0.0231
6,CCACTCCC,-0.31
7,CCAGCTAG,-0.0645
8,AGAAGAAG,-0.101
9,CTCAGGCA,-0.0578
10,CCTGTGCC,-0.142
11,GATAGCGA,0.0813
12,ATACCGCA,-0.0216
13,CTGGTCCA,-0.0771
14,AATACGAT,0.182
15,CCGATGCA,-0.064
16,CCGGATCA,-0.0431
17,GTTGGCGA,-0.103
18,CAGTCTCG,-0.247
19,ATACAGGG,0.0532
20,CTCTACTA,0.0358

# From the supplement of paper PMC3334620
